# Reference: the supplement of paper PMC8728848
# This is one part of the list.
# B1: Cohesin-hDC-ASGPR (Homo sapiens) (protein)
# chain: LDDLDAVRIKVDTVNAKPGDTVRIPVRFSGIPSKGIANCDFVYSYDPNVLEIIEIEPGDIIVDPNPDKSFDTAVYPDRKIIVFLFAEDSGTGAYAITKDGVFATIVAKVKEGAPNGLSVIKFVEVGGFANNDLVEQKTQFFDGGANVGDTTEPATPTTPVTTPTTTDDLDAASQNSKFQRDLVTLRTDFSNFTSNTVAEIQALTSQGSSLEETIASLKAEVEGFKQERQAGVSELQEHTTQKAHLGHCPHCPSVCVPVHSEMLLRVQQLVQDLKKLTCQVATLNNNASTEGTCCPVNWVEHQDSCYWFSHSGMSWAEAEKYCQLKNAHLVVINSREEQNFVQKYLGSAYTWMGLSDPEGAWKWVDGTDYATGFQNWKPGQPDDWQGHGLGGGEDCAHFHPDGRWNDDVCQRPYHWVCEAGLGQTSQESHHHHHH
# Legend:
# Experiment in all cases: glycan array binding signal (z-score within array); higher = stronger binding
# Conditions in all cases: glycan notation: IUPAC condensed, linker removed
# Neu5Ac(a2-3)Gal(b1-4)Glc = target: Neu5Ac(a2-3)Gal(b1-4)Glc
# Procedure, shortened: (§1)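 Arrays were curated from the Consortium for Functional Glycomics database, 3228 in total, and kept only where the protein sequence was available. Binding is expressed as a within-array Z-score. This score was averaged across arrays of the same protein sequence at different concentrations or buffers and across linkers, and negative values can be read as non-binding.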
# [1] = target: Neu5Ac(a2-3)Gal(b1-4)GlcNAc
# Procedure, shortened: as §1
# [2] = target: Neu5Ac(a2-3)Gal(b1-4)GlcNAc(b1-2)Man
# Procedure, shortened: as §1
# [3] = target: Neu5Ac(a2-3)Gal(b1-4)GlcNAc(b1-2)Man(a1-3)[GlcNAc(b1-4)][Neu5Ac(a2-3)Gal(b1-4)GlcNAc(b1-2)Man(a1-6)]Man(b1-4)GlcNAc(b1-4)GlcNAc
# Procedure, shortened: as §1
# [4] = target: Neu5Ac(a2-3)Gal(b1-4)GlcNAc(b1-2)Man(a1-3)[Neu5Ac(a2-3)Gal(b1-4)GlcNAc(b1-2)Man(a1-6)]Man(b1-4)GlcNAc(b1-4)GlcNAc
# Procedure, shortened: as §1
# [5] = target: Neu5Ac(a2-3)Gal(b1-4)GlcNAc(b1-2)Man(a1-3)[Neu5Ac(a2-3)Gal(b1-4)GlcNAc(b1-2)Man(a1-6)]Man(b1-4)GlcNAc(b1-4)[Fuc(a1-6)]GlcNAc
# Procedure, shortened: as §1
# [6] = target: Neu5Ac(a2-3)Gal(b1-4)GlcNAc(b1-2)Man(a1-3)[Neu5Ac(a2-6)Gal(b1-4)GlcNAc(b1-2)Man(a1-6)]Man(b1-4)GlcNAc(b1-4)GlcNAc
# Procedure, shortened: as §1
# [7] = target: Neu5Ac(a2-3)Gal(b1-4)GlcNAc(b1-2)[Neu5Ac(a2-3)Gal(b1-4)GlcNAc(b1-4)]Man(a1-3)[GlcNAc(b1-4)][Neu5Ac(a2-3)Gal(b1-4)GlcNAc(b1-2)[Neu5Ac(a2-3)Gal(b1-4)GlcNAc(b1-6)]Man(a1-6)]Man(b1-4)GlcNAc(b1-4)GlcNAc
# Procedure, shortened: as §1
# [8] = target: Neu5Ac(a2-3)Gal(b1-4)GlcNAc(b1-2)[Neu5Ac(a2-3)Gal(b1-4)GlcNAc(b1-4)]Man(a1-3)[GlcNAc(b1-4)][Neu5Ac(a2-3)Gal(b1-4)GlcNAc(b1-4)Man(a1-6)]Man(b1-4)GlcNAc(b1-4)GlcNAc
# Procedure, shortened: as §1
# [9] = target: Neu5Ac(a2-3)Gal(b1-4)GlcNAc(b1-2)[Neu5Ac(a2-3)Gal(b1-4)GlcNAc(b1-6)]Man(a1-6)[Neu5Ac(a2-3)Gal(b1-4)GlcNAc(b1-2)Man(a1-3)]Man(b1-4)GlcNAc(b1-4)GlcNAc
# Procedure, shortened: as §1
# [10] = target: Neu5Ac(a2-3)Gal(b1-4)GlcNAc(b1-2)[Neu5Ac(a2-3)Gal(b1-4)GlcNAc(b1-6)]Man(a1-6)[Neu5Ac(a2-3)Gal(b1-4)GlcNAc(b1-2)Man(a1-3)][GlcNAc(b1-4)]Man(b1-4)GlcNAc(b1-4)GlcNAc
# Procedure, shortened: as §1
# [11] = target: Neu5Ac(a2-3)Gal(b1-4)GlcNAc(b1-3)Gal
# Procedure, shortened: as §1
# [12] = target: Neu5Ac(a2-3)Gal(b1-4)GlcNAc(b1-3)Gal(b1-3)GlcNAc
# Procedure, shortened: as §1
# [13] = target: Neu5Ac(a2-3)Gal(b1-4)GlcNAc(b1-3)Gal(b1-4)GlcNAc
# Procedure, shortened: as §1
# [14] = target: Neu5Ac(a2-3)Gal(b1-4)GlcNAc(b1-3)Gal(b1-4)GlcNAc(b1-2)Man(a1-3)[Neu5Ac(a2-3)Gal(b1-4)GlcNAc(b1-3)Gal(b1-4)GlcNAc(b1-2)Man(a1-6)]Man(b1-4)GlcNAc(b1-4)GlcNAc
# Procedure, shortened: as §1
# [15] = target: Neu5Ac(a2-3)Gal(b1-4)GlcNAc(b1-3)Gal(b1-4)GlcNAc(b1-3)Gal(b1-4)GlcNAc
# Procedure, shortened: as §1
# [16] = target: Neu5Ac(a2-3)Gal(b1-4)GlcNAc(b1-3)Gal(b1-4)GlcNAc(b1-3)Gal(b1-4)GlcNAc(b1-2)Man(a1-3)[Neu5Ac(a2-3)Gal(b1-4)GlcNAc(b1-3)Gal(b1-4)GlcNAc(b1-3)Gal(b1-4)GlcNAc(b1-2)Man(a1-6)]GalNAc
# Procedure, shortened: as §1
# [17] = target: Neu5Ac(a2-3)Gal(b1-4)GlcNAc(b1-3)Gal(b1-4)GlcNAc(b1-3)GalNAc
# Procedure, shortened: as §1
# [18] = target: Neu5Ac(a2-3)Gal(b1-4)GlcNAc(b1-3)Gal(b1-4)GlcNAc(b1-3)[Neu5Ac(a2-3)Gal(b1-4)GlcNAc(b1-3)Gal(b1-4)GlcNAc(b1-6)]GalNAc
# Procedure, shortened: as §1
# [19] = target: Neu5Ac(a2-3)Gal(b1-4)GlcNAc(b1-3)Gal(b1-4)GlcNAc(b1-6)[Gal(b1-3)]GalNAc
# Procedure, shortened: as §1
# [20] = target: Neu5Ac(a2-3)Gal(b1-4)GlcNAc(b1-3)Gal(b1-4)[Fuc(a1-3)]GlcNAc
# Procedure, shortened: as §1
# [21] = target: Neu5Ac(a2-3)Gal(b1-4)GlcNAc(b1-3)GalNAc
# Procedure, shortened: as §1
# [22] = target: Neu5Ac(a2-3)Gal(b1-4)GlcNAc(b1-3)[Neu5Ac(a2-3)Gal(b1-4)GlcNAc(b1-6)]GalNAc
# Procedure, shortened: as §1
# [23] = target: Neu5Ac(a2-3)Gal(b1-4)GlcNAc(b1-6)GalNAc
# Procedure, shortened: as §1
# [24] = target: Neu5Ac(a2-3)Gal(b1-4)GlcNAc(b1-6)[Gal(b1-3)]GalNAc
# Procedure, shortened: as §1
# [25] = target: Neu5Ac(a2-3)Gal(b1-4)GlcNAc(b1-6)[Neu5Ac(a2-3)Gal(b1-3)]GalNAc
# Procedure, shortened: as §1
# [26] = target: Neu5Ac(a2-3)Gal(b1-4)GlcNAc6S
# Procedure, shortened: as §1
# [27] = target: Neu5Ac(a2-3)Gal(b1-4)[Fuc(a1-3)]GlcNAc
# Procedure, shortened: as §1
# [28] = target: Neu5Ac(a2-3)Gal(b1-4)[Fuc(a1-3)]GlcNAc(b1-2)Man
# Procedure, shortened: as §1
# [29] = target: Neu5Ac(a2-3)Gal(b1-4)[Fuc(a1-3)]GlcNAc(b1-3)Gal
# Procedure, shortened: as §1
# [30] = target: Neu5Ac(a2-3)Gal(b1-4)[Fuc(a1-3)]GlcNAc(b1-3)Gal(b1-4)GlcNAc
# Procedure, shortened: as §1
# [31] = target: Neu5Ac(a2-3)Gal(b1-4)[Fuc(a1-3)]GlcNAc(b1-3)Gal(b1-4)[Fuc(a1-3)]GlcNAc(b1-3)Gal(b1-4)[Fuc(a1-3)]GlcNAc
# Procedure, shortened: as §1
# [32] = target: Neu5Ac(a2-3)Gal(b1-4)[Fuc(a1-3)]GlcNAc(b1-3)GalNAc
# Procedure, shortened: as §1
# [33] = target: Neu5Ac(a2-3)Gal(b1-4)[Fuc(a1-3)]GlcNAc(b1-6)[Gal(b1-3)]GalNAc
# Procedure, shortened: as §1
# [34] = target: Neu5Ac(a2-3)Gal(b1-4)[Fuc(a1-3)]GlcNAc(b1-6)[Neu5Ac(a2-3)Gal(b1-3)]GalNAc
# Procedure, shortened: as §1
# [35] = target: Neu5Ac(a2-3)Gal(b1-4)[Fuc(a1-3)]GlcNAc6S
# Procedure, shortened: as §1
# [36] = target: Neu5Ac(a2-3)Gal6S(b1-4)GlcNAc
# Procedure, shortened: as §1
# [37] = target: Neu5Ac(a2-3)Gal6S(b1-4)[Fuc(a1-3)]GlcNAc
# Procedure, shortened: as §1
binder,measurement,setting,value
B1,glycan array binding signal (z-score),Neu5Ac(a2-3)Gal(b1-4)Glc,-0.471
same,glycan array binding signal (z-score),[1],-0.453
same,glycan array binding signal (z-score),[2],0.681
same,glycan array binding signal (z-score),[3],-0.509
same,glycan array binding signal (z-score),[4],-0.375
same,glycan array binding signal (z-score),[5],-0.509
same,glycan array binding signal (z-score),[6],-0.509
same,glycan array binding signal (z-score),[7],-0.496
same,glycan array binding signal (z-score),[8],-0.496
same,glycan array binding signal (z-score),[9],-0.099
same,glycan array binding signal (z-score),[10],-0.507
same,glycan array binding signal (z-score),[11],-0.514
same,glycan array binding signal (z-score),[12],-0.505
same,glycan array binding signal (z-score),[13],-0.512
same,glycan array binding signal (z-score),[14],-0.194
same,glycan array binding signal (z-score),[15],-0.498
same,glycan array binding signal (z-score),[16],0.562
same,glycan array binding signal (z-score),[17],-0.332
same,glycan array binding signal (z-score),[18],-0.339
same,glycan array binding signal (z-score),[19],-0.454
same,glycan array binding signal (z-score),[20],-0.512
same,glycan array binding signal (z-score),[21],-0.312
same,glycan array binding signal (z-score),[22],-0.495
same,glycan array binding signal (z-score),[23],2.59
same,glycan array binding signal (z-score),[24],-0.449
same,glycan array binding signal (z-score),[25],-0.52
same,glycan array binding signal (z-score),[26],-0.518
same,glycan array binding signal (z-score),[27],-0.493
same,glycan array binding signal (z-score),[28],-0.431
same,glycan array binding signal (z-score),[29],-0.492
same,glycan array binding signal (z-score),[30],-0.278
same,glycan array binding signal (z-score),[31],-0.426
same,glycan array binding signal (z-score),[32],0.541
same,glycan array binding signal (z-score),[33],-0.487
same,glycan array binding signal (z-score),[34],-0.373
same,glycan array binding signal (z-score),[35],-0.488
same,glycan array binding signal (z-score),[36],-0.517
same,glycan array binding signal (z-score),[37],-0.507
